Data from the supplement of paper PMC12632987.
In all, about 4,500 sequences were measured (“median log2 fold change of GCK-ALFA target abundance (FLAG IP / Myc IP barcode read proportion)”: median about 0.078, lowest 2% from about -0.6 on). The list shows a part of the results.

B1: GBRAP_52_5972 (protein)
chain: MREEARAFVERAVELQLAGDEEGLEALAREFAARATDEELEVLAEAVAELVRSADAERAEAALEAALRLEDVLLEEGRDEALADAIVAAAAAAAVARRQA
B2: GBRAP_160_4258 (protein)
chain: DEKREKLIKDVEEDKKEILELVDEESAEEVRTFAVVEMGSHIMEAIDEGVVSDEEEEQMAKIRDELEAELKANENGSKEEIKKIITEHFDKLIELLKKAK
B3: GBRAP_117_2582 (protein)
chain: EEEKEKVKKELRETIRRAGERVKEAEKLSEEEREKVLKEVREEIREAVERALEVLSEEEVLEIVEEELLSFDAKTYFEISSFVEEAIQEIRERRREEEEK
B4: GBRAP_52_6028 (protein)
chain: MREELEAAVREILALVRAGKLEEARAAARELVASLNEEEVELLIEEVARLAAAARPEDLDAVWRLAEIIAEALEEAGVDEVLADDLLARTAAALYEAEQR
B5: GBRAP_166_4933 (protein)
chain: DLEEIKKEVKEKVVELAKKAAELDLEGQIEVALEIRELLEEAKEKGLSKEELKEILSEAISTLKDNPELALQLLRYIEAATDMDEELIDVIDEVREEFLK
B6: GBRAP_9_7125 (protein)
chain: KEELIRKLAEVARDMVEDISKAVPELTEEMKEEFLERIEELEKEALEDKSLTPEEIAERFKELVEEIEEEVKKIVNEELKKIVEAIALTALEEIDEIVEE
B7: GBRAP_160_4024 (protein)
chain: SASVAAIVADFREDLELILAHAAEMDEATIAGALRTAVGRAIMDVAEDPNHRDWTREEVDALDALADETAATLATGDPAAARAAVAALAAAVAAAVEKAA
B8: GBRAP_26_5428 (protein)
chain: VEEYFKEMIDKIEAAADELLDPDLAAAAKTIAATLLEEVLEKVEEENLSIEEIKKLLEEAVKELAEELKELGVDEETIEKLTKVAEEAAKETVEKIKKSS
B9: GBRAP_137_3656 (protein)
chain: GTVEIDATIDGDFAEVVIKASTKEIAEEAADIAAAVADETGVAYAIHLDLEEKTVTIDLLGPREQLDAFLDRLVARLAAKYNVRFTRTVDGETTEETLER
B10: GBRAP_125_3061 (protein)
chain: SKEEDIANLELLARALGYSEDDIAELRELARAGSIKNTLIAIALAEGDEELADAIEKLTEEEVKAVLAEVAAEIAANPDLTPEQVRALLLEVARRALAAS
B11: GBRAP_160_4796 (protein)
chain: SERVEKVAEIFREAAEEALKMAEGETHEERVNIFDVELGSAIMEAIEEGLLNDEEEDVAIEVRDELIAALRANPDLTPEEIRALAEEAVERLRKRLEELA
B12: GBRAP_160_4550 (protein)
chain: SETVEKLVKFAREETEEALELAREVNWEDAVNVLAVAWGQVLMEAVEDERATDEMEDAVADVGDELVAEFKKLKDASWEEIEALAKEKLKELEERLKELA
B13: GBRAP_52_5969 (protein)
chain: MRERAEELAKELVELKKKGDEEGLEEKAREIARTLNDEELRLLAEALAEMVKEGDLETAEIALEVAIVLADELEREGRDPRIASDILGTVTTAAYELEQK
B14: GBRAP_78_6701 (protein)
chain: KVEELIDEAIEKLLEASRLASQLPLEQSTEVLDLLVDALTDLEEAEEEGFDLEKLKRAKEHVEKALELAKKLKTPQAKKLAEELEKALELLEKAIEEIEK
B15: GBRAP_128_3581 (protein)
chain: SVEEAKKYTIEKLEAIKKAGPEERKKLAKELAERFASLSKEEQEAAADTIIELLPELSAEDLRALAEALRAADTSDNPLKTNLAAEVEVEALNKEEEEEE
B16: GBRAP_80_6838 (protein)
chain: ARERLEAALARLAELLPELAPEVRAMVERLLAAGVPVEDLADWVEAAVELAELDKERARELILEAIEEVEELLEEGDLDGARAVIRGYAGDALVEVEELE
B17: GBRAP_11_2821 (protein)
chain: KKEKLKELAEKAEELADEIKRLIESGNVTKEELEELAKKAEELLEFTKKYGDEDEVKLAKIALEEIKKAIEDPENLKEHLENALAAVRVLAGLFLLRYEE
B18: GBRAP_83_6913 (protein)
chain: MKEITVVAAGDRIEEAFEAAIDLHKEGVDHIILEVILRPEEFPTLEAGVRRLLEAGVNVDLRVLLVGATPEEAEALRDRLLAIAREAGRDVRVEVEVIEP
B19: GBRAP_160_4146 (protein)
chain: SEELKKLIKEIKEIAEEALKLIEGETPEEAKTIAKVAFGEMVMLVMSNEAVSEETEEKVGEIADEAIAYLDANPDLTVEEVKELLKEATEKIIEVLKEEI
B20: GBRAP_160_4476 (protein)
chain: MEKVKKAVEELRKDVEETLEENEDLSPKDLLLAVEVTIGSDLMEAVEEGTLSDEQEDIVIKAMDEIRELREESENMSVEEVKKRAREIIEKMAEEILKAA
B21: GBRAP_43_5793 (protein)
chain: MEEIVEGALDFARTALETPEITDETKARIVVDAVEFAADEGVLTEEELRELLELLAESVSDETALRALKEILEELKKLGAPESLLEVVEEAIEEVEERLA
B22: GBRAP_128_3172 (protein)
chain: SSEEIVEEVRRLLEEAITAGPEEARRIFREIVDLMLEADKETAERIAEVVIELLPKFTEEQLEILIDVIREMRPKADPYKQELLNEVAVAAGERILELEE
B23: GBRAP_52_6264 (protein)
chain: MREELKKKVEEIFELVKEGKLEEARKKAKELVESLNEEELELFIEEAAEYAKTIKKEEIEYAEKMVEIIAEEMEKAGVPEELVSLFEAEVYGALYEREKE
B24: GBRAP_160_4451 (protein)
chain: SERVEKLLKEVEETKEEAIELIEGQSHEERVVIVRGEFGALLYELSLDESVSDETEDEIAEVVDELVEYLEENPDLSEEEIKELIEEAAEKIKEIIKKNL
B25: GBRAP_128_3549 (protein)
chain: SLEEARERARRAVEEIAASDVERAREITARFAEELRGWSLEEVEAALEVVREEAGKLDAEKLEAVADVLLERRGEFSPEVQRLIADTAVELLNLAEEKEE
B26: GBRAP_11_2714 (protein)
chain: KKEKLEKFAKKAEKLAKKIKKLIKEGPKKEELKKLAKEAKKLAKEAKEAGLPESIVELVKLAAELLEEAIKDPKNAKEYLKNAAAALDVAAGQLLLEAEE
B27: GBRAP_184_5019 (protein)
chain: KVLEREIEINNVEEARAKLAEVRAEAAAEKAELILYVKIKNPTMEILKAIAEELARIMAEGAVPRLTVGIDADLTEEQIDFLVETLSAAGVRLVLAIPEE
B28: GBRAP_128_3191 (protein)
chain: SVEEVREWTRAAMERIKNSDEEEARAIAEELMERLKELSVEEVEAAVEVILEELPKLSKEHLEIIADVFRRKRPEFTPEKAELVAEVEVEALNLLEELEE
B29: GBRAP_166_4941 (protein)
chain: SLEEIMKKLEAAIKEFKEKIKELNEEERLERIIEIGELIKEAIEAGASDEKLVEAITRVLEAAKEAGFDPAVAAGIIANVADVSEELEDKIWEKVDELKK

These binders were tested against GABARAP, O95166 (assay: median log2 fold change of GCK-ALFA target abundance (FLAG IP / Myc IP barcode read proportion) (log2 ratio); each designed protein is fused to an ALFA-tag nanobody in HEK293 cells to bring the named protein to FLAG-tagged glucokinase (GCK); Myc marks an untargeted standard; higher = target protein stabilised (more abundant)). Conditions: target protein: 3xFLAG-MCP-GCK-ALFA reporter; HEK293 landing pad (RPLP).
GABARAP, O95166, sequence (O95166 whole entry, the tested form may be a part): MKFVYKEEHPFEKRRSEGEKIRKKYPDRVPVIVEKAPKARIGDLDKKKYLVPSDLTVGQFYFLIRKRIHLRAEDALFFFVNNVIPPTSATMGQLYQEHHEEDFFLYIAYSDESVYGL
Outline: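 Binders fused to an ALFA nanobody were recombined as a library into HEK293 landing-pad cells, which were induced with 2 μg mL^−1 doxycycline and then transfected to express a FLAG-tagged target and a Myc-tagged standard. After 48 h, circular RNA barcodes recovered by anti-FLAG and anti-Myc immunoprecipitation of lysates were reverse transcribed, amplified and sequenced. Each binder's target abundance is the median log2 ratio of FLAG to Myc barcode read proportions, from barcodes present at ≥10^−7 in both replicates, binders carrying ≥3 barcodes per replicate, a 10^−6 pseudocount and pooled replicates.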
In the case of B1, the “median log2 fold change” value is reported as -0.0742. In the case of B2, the “median log2 fold change” value is reported as 0.189. B3 was tested, and the “median log2 fold change” value was 0.528. With B4 the “median log2 fold change” value was -0.0434. With B5 the “median log2 fold change” value was 0.091. For B6, the “median log2 fold change” value was 0.0848. B7 was tested, and the “median log2 fold change” value was 0.136. B8 was tested, and the “median log2 fold change” value was 0.27. In the case of B9, the “median log2 fold change” value is reported as 0.0492. B10 was tested, and the “median log2 fold change” value was -0.00612. With B11 the “median log2 fold change” value was 0.0784. B12 was tested, and the “median log2 fold change” value was -0.255. With B13 the “median log2 fold change” value was 0.00299. In the case of B14, the “median log2 fold change” value is reported as 0.169. B15 was tested, and the “median log2 fold change” value was 0.278. With B16 the “median log2 fold change” value was 0.0357. In the case of B17, the “median log2 fold change” value is reported as 0.0418. B18 was tested, and the “median log2 fold change” value was 0.133. For B19, the “median log2 fold change” value was -0.0694. In the case of B20, the “median log2 fold change” value is reported as -0.279. With B21 the “median log2 fold change” value was -0.256. In the case of B22, the “median log2 fold change” value is reported as 0.24. For B23, the “median log2 fold change” value was 0.236. In the case of B24, the “median log2 fold change” value is reported as -0.0716. For B25, the “median log2 fold change” value was 0.0777. In the case of B26, the “median log2 fold change” value is reported as -0.0723. In the case of B27, the “median log2 fold change” value is reported as 0.0641. With B28 the “median log2 fold change” value was 0.181. For B29, the “median log2 fold change” value was -0.134.
